Measured values reported in PubChem BioAssay AID504332 (National Center for Advancing Translational Sciences (NCATS), 2011).
Hit rate of the full screen: of about 350,000 compounds, about 31,000 (8.9%) were called active. This list was built around the results that the source calls inconclusive (neither active nor inactive); the mix of calls is not that of the screen. Calls come from the whole dose curve; as a rule, active = well fitted inhibition curve with a large enough effect; inconclusive = small, poorly fitted or top-dose-only effect; inactive = no such curve, though single readings can be large or run the other way. A potency beside an inconclusive call is a rough fit, not a confirmed value.
% is set by controls: 0 for no effect and ±100 for the full control effect; potency is the fitted concentration of half-maximal effect; tags give direction and shape of the fitted curve.
Note: nearly all actives have a fitted effect of over 75% in size.

These molecules were tested against Histone-lysine N-methyltransferase EHMT2 (Homo sapiens) (UniProt Q96KQ7) (assay: qHTS Assay for Inhibitors of Histone Lysine Methyltransferase G9a). Details: G9a H3K9 monomethylation, AlphaScreen, 2 h; activity, negative = inhibition: at 59 µM (top of the series) unless noted.
Sequence of UniProt Q96KQ7 (Q96KQ7 whole entry, looked up): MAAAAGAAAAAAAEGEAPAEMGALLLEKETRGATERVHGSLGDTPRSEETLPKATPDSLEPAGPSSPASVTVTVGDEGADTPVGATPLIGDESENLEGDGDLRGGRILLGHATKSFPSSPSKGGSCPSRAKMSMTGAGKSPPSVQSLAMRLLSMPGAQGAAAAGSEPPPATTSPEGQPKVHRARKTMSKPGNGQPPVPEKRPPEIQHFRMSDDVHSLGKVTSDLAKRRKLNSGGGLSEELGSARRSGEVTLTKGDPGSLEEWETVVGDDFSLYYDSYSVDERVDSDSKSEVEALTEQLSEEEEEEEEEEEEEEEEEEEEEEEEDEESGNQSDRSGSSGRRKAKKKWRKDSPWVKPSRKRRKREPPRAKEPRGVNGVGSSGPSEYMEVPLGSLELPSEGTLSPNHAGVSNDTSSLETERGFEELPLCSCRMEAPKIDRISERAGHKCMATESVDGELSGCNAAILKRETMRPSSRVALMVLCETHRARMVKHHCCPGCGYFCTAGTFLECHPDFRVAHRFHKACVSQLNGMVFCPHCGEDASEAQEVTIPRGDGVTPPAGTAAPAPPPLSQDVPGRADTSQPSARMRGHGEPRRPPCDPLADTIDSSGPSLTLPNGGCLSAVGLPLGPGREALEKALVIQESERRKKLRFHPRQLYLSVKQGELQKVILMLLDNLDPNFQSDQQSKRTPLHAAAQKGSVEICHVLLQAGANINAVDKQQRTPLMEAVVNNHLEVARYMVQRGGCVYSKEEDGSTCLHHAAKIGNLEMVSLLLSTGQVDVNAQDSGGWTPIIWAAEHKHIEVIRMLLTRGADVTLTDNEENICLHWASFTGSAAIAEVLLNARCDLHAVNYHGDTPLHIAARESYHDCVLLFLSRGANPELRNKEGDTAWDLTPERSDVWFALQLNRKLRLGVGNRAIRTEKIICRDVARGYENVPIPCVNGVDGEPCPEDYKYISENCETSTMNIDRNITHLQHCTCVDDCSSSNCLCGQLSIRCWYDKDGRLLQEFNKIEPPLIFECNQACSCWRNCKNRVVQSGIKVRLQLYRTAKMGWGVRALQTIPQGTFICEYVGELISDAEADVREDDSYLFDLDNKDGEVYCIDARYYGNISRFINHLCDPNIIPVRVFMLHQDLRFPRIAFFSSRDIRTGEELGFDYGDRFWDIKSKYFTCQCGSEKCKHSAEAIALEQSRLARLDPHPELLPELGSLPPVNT
Summary of the method: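 Compounds were preincubated with 20 nM G9a for 15 min, after which biotinylated H3K9 peptide (500 nM) and SAM (20 uM) started a 2 h room-temperature reaction. Monomethylated product was quantified by antibody-based AlphaScreen chemiluminescence.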
For CC(CCN(C)C)OC(=O)c1ccc(C(C)c2ccccc2)o1 (stereo not given), the Potency was inconclusive: 50.1 µM [inhibitor, partial curve, poor fit].
In the case of CC(C)CCNC(=O)C1CCN(c2nc3ccccc3o2)CC1, the activity, negative = inhibition was inconclusive: -82.1% [inhibitor] [at 102 µM].
With O=[N+]([O-])c1ccccc1CN1CCN(Cc2ccc3ccccc3c2)CC1 the Potency was active: 6.31 µM.
In the case of Cc1ccc(OCCn2c(-c3ccc(Cl)cc3)nc3ccccc3c2=O)c(C)c1, the Potency was inconclusive: 35.5 µM [inhibitor, partial curve, poor fit].
For CCOc1ccc(NC(=S)NNC(=O)CC(C)O)cc1 (stereo not given), the Potency was inconclusive: 79.4 µM [inhibitor, partial curve, poor fit].
In the case of Cc1ccc2c(c1)cc(CN(Cc1cccs1)C(=O)c1ccco1)c1nnnn12, the “activity, negative = inhibition” value was inactive: 10.2%.
In the case of CCOc1ccc(NC2=NCC(=O)N2CCc2ccccc2)cc1, the Potency was inconclusive: 15.8 µM [inhibitor, single point].
For CC(=O)Oc1ccc2c(c1)C(=O)c1ccccc1CO2, the Potency was inconclusive: 89.1 µM [inhibitor, single point].
For CCOc1cc(CNc2ccc(O)cc2)cc(Br)c1OCc1ccccc1, the Potency was inconclusive: 17.8 µM [inhibitor, partial curve, poor fit].
With CCC(NC(=O)COC(=O)C1CC2CCCC(C1)C2=O)c1ccc(Br)cc1 (stereo not given) the “activity, negative = inhibition” value was inactive: -3.82% [at 102 µM].
CCOc1ccc(C(=O)N[C@H](C(=O)Nc2ccccc2OC)C(C)C)cc1 was tested, and the “activity, negative = inhibition” value was inactive: 17.7% [at 102 µM].
CN(C)CCCN(C(=O)/C=C/c1cccs1)c1nc2c(F)cccc2s1 was tested, and the Potency was inconclusive: 44.7 µM [inhibitor, partial curve].
CCOC(=O)C1=C(CSc2nc(CC)c(C)cc2C#N)OC(N)=C(C#N)C1c1ccc(OC)cc1 (stereo not given) was tested, and the Potency was active: 4.47 µM.
With CCCN(CCC)C(=O)Cn1c(=O)n(Cc2ccc(C(=O)NCCc3ccc(OC)c(OC)c3)cc2)c(=O)c2ccccc21 the “activity, negative = inhibition” value was inactive: -17.5%.
With c1ccc(Cn2c(CNc3nc4ccccc4n3CCN3CCCCC3)nc3ccccc32)cc1 the Potency was inconclusive: 25.1 µM [inhibitor, single point].
With O=[N+]([O-])c1cccc(NC(=S)N2CCOCC2)c1 the “activity, negative = inhibition” value was inactive: -3.36% [at 102 µM].
With CCOc1cc(S(=O)(=O)NCc2ccccc2)ccc1Br the “activity, negative = inhibition” value was inactive: 6.01% [at 102 µM].
With O=C(O)CCCCCn1c(SCC(=O)c2ccc(O)c(O)c2)nc2ccsc2c1=O the Potency was active: 79.4 µM.
With CCOc1ccc(S(=O)(=O)N2CCC(C(N)=O)CC2)c2ccccc12 the activity, negative = inhibition was inconclusive: -52.2% [inhibitor] [at 102 µM].
For Cc1sc2nc(C(C)Sc3nnc(C)n3-c3ccccc3)[nH]c(=O)c2c1C (stereo not given), the Potency was inconclusive: 0.891 µM [inhibitor, partial curve, poor fit].
